Values joined by “and” are separate entries in the source; they are usually repeats but may differ in a detail not shown here. Identical values can stand only once. The whole screen tested about 48,000 compounds, of which about 1,200 (2.5%) were called active. Another 2% or so got no clear call; they are omitted.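 The calls were made as follows: active = activation of at least 60% and not above a set upper limit (about 1 call in 100 departs from these limits); inconclusive = activation of 40% to 60%, or above that upper limit; inactive = activation under 40%.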 The list shows a part of the results.
Target: Probable G-protein coupled receptor 32 (Homo sapiens) (UniProt O75388)
Assay: qHTS for Agonists of Human Resolvin D1 Receptor DRV1
Conditions: CHO-K1 GPR32 beta-arrestin PathHunter luminescence, 90 min; at 76.9 µM; hits give high values; zero percent set by DMSO-only wells
Source text: Endogenous resolution of inflammation is known to be transduced through various GPCRs and their natural mediators of lipid nature. Resolvin D1 (RvD1) is one of the active players in resolution of acute inflammation through regulation of anti-inflammatory pathways; it is known to enhance phagocytosis of human macrophages, limits neutrophils infiltration, etc. […] The search for GPR32-activating small molecules with anti-inflammatory effects similar to its natural omega-3 derivative ligand in order to use them as research tools for further studies of inflammation and its resolution was the goal of this screening project. For primary screening assay, we used CHO-K1 GPR32 beta-arrestin cell line (DiscoveRx, #93-0321C2A) and the PathHunter(R) beta-Arrestin Assay (DiscoveRx) which measures recruitment of beta-arrestin to the GPR32 and generates chemiluminescent signal. These engineered cells stably transfected with GPR32 co-express GPR32-fused small 42-amino acid fragment of beta-Gal called ProLinktrade mark, and […] -tagged beta-Arrestin fusion protein. When GPR32 is activated by a ligand, it stimulates binding of beta -Arrestin to ProLink-tagged GPR32, and two parts of beta-Gal complement forming a functional enzyme. Upon substrate (PathHunter(R) Detection reagent) addition, beta-Gal hydrolyzes it and generates a chemiluminescent signal.
The cells were thawed and plated in thawing media containing F-12 HAM (Invitrogen, #11765-054), 10% FBS (Invitrogen, #10082), 1x Glutamine, and 1x Pen/Strep onto the 175-mm flask for 24 hours. Then, thawing media was replaced with Growth media which contains 800microg/mL Geneticin (Invitrogen, #10131) and 300microg/mL Hygromycin B (Invitrogen, #10687) in addition to described above. For the assay, the cells were harvested at ~80% confluent stage with Cell Dissociation buffer (Gibco, #13151), and seeded at 2,500 cells/ 3microL/well in assay media (PathHunter(R) Cell Plating Reagent, DiscoverX, #93-0563R1B) using MultiDrop Combi dispenser (Thermo Scientific, Logan, UT) onto white solid bottom tissue culture-treated 1536-well plates (Greiner # 789173-F) and allowed to attach overnight at 37 degrees C, 95% humidity, 5% CO2, . Next, 23nL/well of compound solutions in DMSO were added with a Pin Tool (Kalypsis, San Diego, CA) to the assay plates. As the basal control (EC0), 23 nL/well of DMSO was used on each plate. The cells were incubated in the presence of compounds or DMSO for 90 minutes at 37 degrees C, 5% CO2. Subsequently, 1.5microL/well of PathHunter(R) Detection Reagent prepared per the manufacturer's instructions was added to the assay plates with BioRAPTR FRDtrade mark dispenser (Beckman Coulter, San Francisco, CA) and incubated for 1 hour at ambient temperature prior to the measurement of the luminescent signal on ViewLux(R) uHTS Microplate Imager (Perkin Elmer, Waltham, MA).

Sequence of UniProt O75388 (O75388 whole entry, looked up): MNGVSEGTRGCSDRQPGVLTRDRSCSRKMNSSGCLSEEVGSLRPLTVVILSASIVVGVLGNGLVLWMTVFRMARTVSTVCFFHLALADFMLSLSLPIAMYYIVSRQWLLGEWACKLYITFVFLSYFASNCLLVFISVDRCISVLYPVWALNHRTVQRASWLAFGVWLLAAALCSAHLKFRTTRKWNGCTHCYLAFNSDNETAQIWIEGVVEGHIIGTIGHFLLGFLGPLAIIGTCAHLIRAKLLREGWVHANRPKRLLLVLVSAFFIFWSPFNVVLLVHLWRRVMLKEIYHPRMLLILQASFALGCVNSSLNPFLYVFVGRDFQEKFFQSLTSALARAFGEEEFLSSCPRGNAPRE

activation, inactive:
Cc1ccc(CSc2nc(-c3cccs3)ccc2C#N)cc1 -10.9%
CC(C)c1cnc2c(c1SCC(=O)Nc1ccccc1C(F)(F)F)c(=O)n(C)c(=O)n2C -5.92%
COc1ccc(-n2nc(C(=O)Nc3ccccc3OC)c3c4ccccc4n(C)c3c2=O)cc1Cl -9.87%
Cc1cccc(N2CCN(c3cc(C)nc4c(-c5ccc(Cl)cc5)c(C)nn34)CC2C)c1 (stereo not given) 6.1%
Cc1nnc(SCc2ccc(Cl)cc2)c2cc3occc3n12 9.85%
CCOc1ccc(NC(=O)NCCCN2CCN(c3ccc(F)cc3)CC2)cc1 9.38%
O=c1[nH]c(=O)c2[nH]c(=O)[nH]c2[nH]1 0.0854%
CC(C)Oc1ccc(CNC(=O)CN2C(=O)CCc3cc(S(=O)(=O)N4CCCCC4)ccc32)cc1 7.23%
Cc1cc(C)cc(N2C(=O)CSC23C(=O)N(CC(=O)NCCc2ccccc2)c2ccccc23)c1 (stereo not given) 5.52%
Cc1ccc(CSCc2ccc(C(=O)NCCc3ccc(Cl)cc3)o2)cc1 -12.3%
COc1ccc(NC(=O)CCS(=O)(=O)c2cccc3nonc23)cc1Cl -1.27%
CN(C(=O)c1ccc2c(c1)N(Cc1cccc(Cl)c1)C(=O)c1ccccc1S2=O)C1CCCCC1 (stereo not given) -32%
CCOC(=O)C1=C(CS(=O)(=O)c2ccc(C)cc2)NC(=O)NC1c1ccc(C(C)C)cc1 (stereo not given) 28.7%
Cc1oc2ncn(C)c(=O)c2c1C(=O)NC(C)c1ccccc1 (stereo not given) -0.68%
COc1ccccc1NCc1cccn1-c1nnc(N2CCOCC2)s1 8.39%
Cc1ccc(C)c(CN2C(=O)CSc3ccc(C(=O)NCc4ccc(F)cc4)cc32)c1 18%
O=C(CSC1=Nc2ccccc2N=C(c2ccc(F)cc2)C1)NCc1ccc(F)cc1 -27.6%
CCS(=O)(=O)N1CCc2cc(C(=O)Nc3cccc(Cl)c3C)ccc21 47.2%
O=C(c1cccc(Br)c1)N1CCN(Cc2cc(=O)n3nc(-c4ccccc4)sc3n2)CC1 -0.857%
Cc1ccc(CSc2nc3cccnc3n2Cc2ccc(C(=O)NCCc3ccccc3)cc2)cc1 15.7%
CCC(=O)N1c2nc(-c3ccco3)nn2C2(CCCCC2)[C@@H]2CCCC[C@@H]21 -28.8%
COc1ccc(N2CCN(C(CNC(=O)C(=O)NCCCN(C)C)c3cccnc3)CC2)cc1 (stereo not given) 3.68%
CCOc1c(Cl)cc(Cl)cc1CNCCSc1nnnn1C 19.9%
O=C(Nc1cc2c(cc1C(=O)c1ccccc1Cl)OCCO2)c1ccc(Br)cc1 -10.5%
Cc1nc2c(-c3ccccc3)c(C)nn2c(C)c1CCC(=O)NCc1ccccc1Cl -3.85%
Cc1cccc(CNC(=O)C2CCN(c3nnc(-n4c(C)ccc4C)s3)CC2)c1 -13.5%
Cc1ccc(N2CC(NC(=O)c3ccc(S(=O)(=O)N4CCOCC4)cc3)CC2=O)cc1C (stereo not given) -5.58%
Cc1cc2oc(=O)c(CC(=O)O)c(C)c2c2occ(-c3ccc(F)cc3)c12 -3.17%
Cc1cccc(-c2noc(CN(C(=O)c3ccccc3Cl)C(C)C)n2)c1 -10.1%
O=C(c1ccc2c(c1)OCCO2)N(Cc1cccnc1)c1nc2c(F)cccc2s1 -20.1%
Cn1c(C(=O)NCCc2ccccc2)cc2c(=O)n3ccccc3nc21 -7.83%
COc1ccc(CCNC(=O)CCCn2c(=O)c3ccccc3n(Cc3ccc(F)cc3Cl)c2=O)cc1OC -2.35%
COc1ccc(Cn2c(CNS(=O)(=O)c3ccc4c(c3)CCCC4)nc3cccnc32)cc1 7.09%
Cc1ccc(CNc2nc3ccccc3c3nc(-c4cccc(C)c4)nn23)cc1 2.44%
Cc1ccc2c(c1)c1c(c(=O)n(Cc3ccccc3)c(=O)n1Cc1cccc(C(F)(F)F)c1)n2C -13%
COc1ccc(CNC(=O)CCc2c(C)nn(-c3ccc(N4CCCCC4)nn3)c2C)c(OC)c1 -16%
CCCSc1oc(-c2cccs2)nc1S(=O)(=O)c1ccc(Cl)cc1 -24.8%
O=C(c1cnc(N2CCCCC2)c2ccccc12)N1CCN(c2ccccc2F)CC1 -28.1%
Cc1ccc(-n2ncc(C(=O)NCCCN3CCN(c4cccc(Cl)c4)CC3)c2-n2cccc2)cc1 -20.1%
CC(=O)N1CCc2cc(CNS(=O)(=O)c3ccc(Br)s3)ccc21 -8.08%
O=C(CSC1=Nc2ccccc2N=C(c2ccc(F)cc2)C1)NCc1ccccc1 -7.71%
c1csc(C2=NC(c3ccncc3)=Nc3ccccc3N2)c1 -12.4%
CCCc1cc(=O)[nH]c(=S)[nH]1 -38.2%
O=C(NCCc1ccc(Cl)cc1)c1ccc(Cn2c(=O)c3cccn3c3cccnc32)cc1 -22.3%
CC1CCCN(Cc2cn3c(-c4cccc(Br)c4)nnc3s2)C1 (stereo not given) -23.8%
CCOc1ccc(C(=O)NCCc2sc3nc(-c4ccc(Cl)cc4)nn3c2C)cc1OCC -9.52%
Cc1noc(Cn2c(=O)c3ccccc3n(CC(=O)Nc3cccc(Cl)c3C)c2=O)n1 -12.2%
CC1CCN(c2nn3c(=O)c(C(=O)NCc4ccc(Cl)cc4)cnc3s2)CC1 -2.75%
CC[N+]1(CC)CCC(=C(c2ccccc2)c2ccccc2)C1C (stereo not given) 6.96%
CC(=O)N1CCCc2cc(S(=O)(=O)N(C)CC(=O)Nc3ccc(C)cc3C)ccc21 -3.89%
N#Cc1nc(/C=C/c2ccc(F)cc2)oc1N1CCN(c2ccccc2)CC1 -26.4%
CC(C)c1ccc(OCC(=O)Nc2c(Cl)ccc3nsnc23)cc1 45%
COc1ccc(-n2c(=O)c3c4c(sc3n(Cc3cc(C)ccc3C)c2=O)CN(C(C)=O)CC4)c(OC)c1 1.34%
Cc1ccccc1-n1cc(-c2ccccc2)nc1SCC(=O)Nc1ccc(F)cc1 -35.5%
Cc1cccc(-c2noc(-c3cccnc3NCc3ccco3)n2)c1 -9.69%
CC1=C(CC(=O)O)c2cc(F)ccc2/C1=C\c1ccc(S(C)=O)cc1 (stereo not given) -34% and -2.77%
O=C(Nc1cccc(NC(=O)c2ccc(Br)o2)c1)c1ccccc1 16.1%
COc1cccc(C2c3c(oc4ccc(C)cc4c3=O)C(=O)N2CCCN2CCOCC2)c1OC (stereo not given) -15.5%
Cc1ccc(CNc2nc3ccccc3n3c(C)nnc23)cc1 4.53%
CCCn1c2ccccc2c2cnn(CC(=O)N3CCC(C(=O)OCC)CC3)c(=O)c21 -7.53%
COc1ccc(C2C(=O)N(C3CCC(C)CC3)CC(=O)N2Cc2ccccc2Cl)cc1OC (stereo not given) -30.4%
O=C(NCCN1CCN(c2ccccc2)CC1)Nc1ccccc1Br -15%
Cc1ccc(Sc2c(C)nn(C(=O)COc3ccc(F)cc3)c2C)cc1 6.5%
Cc1onc(-c2ccccc2)c1-c1ccc(S(N)(=O)=O)cc1 2.37%
C[C@H]1CC2C3CCC4=CC(=O)C=C[C@]4(C)[C@@]3(Cl)[C@@H](O)C[C@]2(C)[C@@]1(O)C(=O)CO (stereo not given in full) 3.89%
CCC(O)c1cc2c(cc1NC(=O)c1cccc(Br)c1)OCCO2 (stereo not given) -0.0722%
Cc1ccc(CNC(=O)CSc2nc(=O)[nH]c3c2CCCC3)cc1 -10.1%
CN(C)CCCN(C(=O)c1cccs1)c1nc2ccc(F)cc2s1 23.3%
O=C(CN1C(=O)CCc2cc(S(=O)(=O)N3CCOCC3)ccc21)Nc1cccc(Cl)c1 9.72%
N#Cc1nc(-c2ccc(COc3ccccc3)o2)oc1NCc1ccccc1 -13%
CN1CCN(c2oc(-c3ccc(COc4ccc(Cl)cc4)o3)nc2C#N)CC1 -6.13%
Cc1nc2ccccc2n1CCc1nc2c3ccccc3nc(SCC(=O)Nc3ccc(Br)cc3F)n2n1 -18.3%
COc1ccc(-c2nc3ccccc3o2)cc1NC(=O)C(C)Oc1ccc(Cl)cc1Cl (stereo not given) 12.5%
CC(C)C12CN3CC(C(C)C)(CN(C1)C3c1ccc(Cl)cc1)C2=O (stereo not given) 13.5%
O=C(Nc1ccccc1)c1cc([N+](=O)[O-])ccc1Cl -1.17%
COc1ccc(NC(=O)Cn2cnc3sc(C)c(S(=O)(=O)N4CCN(C)CC4)c3c2=O)cc1Cl 3.74%
CCCSc1ncc(Cl)c(C(=O)N(Cc2ccc(N(C)C)cc2)C2CCS(=O)(=O)C2)n1 (stereo not given) -34.1%
CCOC(=O)c1ccc(N2C(=O)c3n[nH]c(C)c3C2c2ccc(C(C)(C)C)cc2)cc1 (stereo not given) 10.9%
CNC(=O)C1CCC(Cn2c(=O)[nH]c3ccsc3c2=O)CC1 (stereo not given) 1.08%
CCOC(=O)CNC(=O)N1CCc2cc(S(=O)(=O)N3CCC(C)CC3)ccc21 -7.73%
CC(C)(C)OC(=O)N1CCC(c2c(C(=O)N3CCN(c4ncccn4)CC3)cnn2-c2ccccc2)CC1 -7.07%
Cc1ccccc1-n1c(/C=C/c2c(C)n(C)c3ccccc23)nc2ccccc2c1=O -6.53%
Cc1cccc(OC(=O)c2cc(-c3ccc4c(c3)OCCO4)on2)c1 -0.332%
CSc1ccc(CNc2ncc(-c3ccccc3)n2C)cc1 -52.2%
CCOC(=O)c1cccc(NC(=O)c2cc(CN3CCOCC3)on2)c1 -2.64%

Reference: PubChem BioAssay AID1346428 (National Center for Advancing Translational Sciences (NCATS), 2018)
